Hit rate of the full screen: of about 420,000 compounds, about 64,000 (15%) were called active. Inconclusive means that the source gave no clear call. Such entries were picked first, then a sample of the others. Calls come from the whole dose curve; as a rule, active = well fitted inhibition curve with a large enough effect; inconclusive = small, poorly fitted or top-dose-only effect; inactive = flat fitted curve, though single readings scatter. Potencies of inconclusive entries are left out as doubtful fits.
Assay: qHTS for Inhibitors of human tyrosyl-DNA phosphodiesterase 1 (TDP1): qHTS in cells in absence of CPT; note: nearly all actives have a fitted effect of over 55% in size
Details: DT40 Tdp1-/- hTDP1 cells, no CPT, ATP luminescence, 48 h; activity change, negative = growth inhibition: at 46.2 µM (top of the series) unless noted
In short: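 Stably hTDP1-transfected Tdp1-null chicken DT40 cells were treated with library compounds minus camptothecin and grown for at least 48 hr at 37 °C, after which cellular ATP was quantified by luminescence.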
% is set by controls: 0 for no effect and ±100 for the full control effect; potency is the fitted concentration of half-maximal effect; tags give direction and shape of the fitted curve.

SMILES	Potency	activity change, negative = growth inhibition
CC(/C=N/NC(=O)c1cc(-c2cccnc2)nc2c1c(C)nn2-c1ccccc1)=C\c1ccccc1	active: 13 µM	–
CCOc1ccc(C(=O)COC(=O)Cn2[nH]c(=O)c3ccccc3c2=O)cc1	inactive	–
Cc1ccc(NC(=O)COC(=O)CN2CCSC2=O)cc1Cl	inactive	–
COc1ccccc1-c1cn[nH]c1-c1ccc(O)cc1O	inconclusive [inhibitor, partial curve]	–
Cc1cccc(C)c1-n1nnnc1C(c1ccccc1OC(F)(F)F)N1CCN(C/C=C/c2ccccc2)CC1 (stereo unspecified)	active: 20.6 µM	–
O=C(Nc1ccc2oc(-c3ccncc3)nc2c1)c1ccco1	inconclusive [inhibitor, single point]	–
COc1ccc(/C=C/c2c([N+](=O)[O-])c(=O)n(C)c(=O)n2C)cc1OC	inactive	–
Cc1ccsc1C(=O)NC1CCCN(Cc2ccc(Cl)cc2)C1 (stereo unspecified)	active: 14.6 µM	–
C=Cn1cc[n+](CC(=O)c2ccc(Cl)c(Cl)c2)c1	–	inconclusive: -31.8% [inhibitor]
N#Cc1ccccc1S(=O)(=O)N1CCN(C(=O)c2cc(-c3ccccc3)nn2-c2ccccc2)CC1	inconclusive [inhibitor, single point]	–
Nc1c(-c2n[nH]c(=S)n2-c2ccc(Cl)cc2Cl)cnn1-c1ccccc1	inactive	–
COc1ccc(C(C)=O)cc1CC(=O)N(Cc1ccccc1)c1ccccc1	inconclusive [inhibitor, single point]	–
COc1cc(C(=O)Nc2cccc(-n3cnnn3)c2)cc(Cl)c1OC	inconclusive [inhibitor, single point]	–
COc1ccc(S(=O)(=O)n2nc(-c3ccc(Cl)cc3)cc2N)cc1	inconclusive [inhibitor, partial curve, poor fit]	–
O=C(Cc1ccc([N+](=O)[O-])cc1)N1CCCCCC1	–	inconclusive: -30.8% [inhibitor]
COc1ccc(CCNC(=O)Cn2nnc(-c3ccc(N(C)C)cc3)n2)cc1OC	inconclusive [inhibitor, single point]	–
CS(=O)(=O)c1ccc(C(=O)OCC(=O)NCc2cccs2)cc1[N+](=O)[O-]	active: 4.61 µM	–
CC(=O)Nc1ccc(CNc2nc(NCC3CC3)nc3ccsc23)cc1	inconclusive [inhibitor, single point]	–
O=c1oc(-c2cccs2)nc2sc3c(c12)CCCC3	inactive	–
COc1ccc(-c2nn3c(-c4cc(-c5ccccc5)n[nH]4)nnc3s2)cc1	active: 2.82 µM	–
CCOC(=O)c1sc(=S)n(C)c1NC(=O)c1ccc(F)cc1	inconclusive [inhibitor, single point]	–
